Assay results taken from the supplement of paper PMC8728848.
Some of the results follow.

Tests used:
Assay in all cases: glycan array binding signal (z-score within array); higher = stronger binding
Settings in all cases: glycan notation: IUPAC condensed, linker removed
[1] = target: Gal(b1-4)GlcNAc(b1-3)Gal(b1-4)GlcNAc(b1-2)Man(a1-3)[Gal(b1-4)GlcNAc(b1-3)Gal(b1-4)GlcNAc(b1-2)Man(a1-6)]Man(b1-4)GlcNAc(b1-4)[Fuc(a1-6)]GlcNAc
In short: (§1)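 Glycan array data came from 3228 arrays in the Consortium for Functional Glycomics database, and only arrays with an available protein sequence were kept. Glycan names were put into IUPAC-condensed notation, and columns mapping to the same glycan were averaged. The binding signal is a within-array Z-score, averaged across arrays of one protein sequence run at different concentrations or buffers and across linkers. A negative Z-score can be read as non-binding.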

[2] = target: Gal(b1-4)GlcNAc(b1-3)Gal(b1-4)GlcNAc(b1-2)[Gal(b1-4)GlcNAc(b1-3)Gal(b1-4)GlcNAc(b1-6)]Man(a1-6)[Gal(b1-4)GlcNAc(b1-3)Gal(b1-4)GlcNAc(b1-2)Man(a1-3)]Man(b1-4)GlcNAc(b1-4)GlcNAc
In short: as §1

[3] = target: Gal(b1-4)GlcNAc(b1-3)Gal(b1-4)GlcNAc(b1-2)[Gal(b1-4)GlcNAc(b1-3)Gal(b1-4)GlcNAc(b1-6)]Man(a1-6)[Gal(b1-4)GlcNAc(b1-3)Gal(b1-4)GlcNAc(b1-2)Man(a1-3)]Man(b1-4)GlcNAc(b1-4)[Fuc(a1-6)]GlcNAc
In short: as §1

[4] = target: Gal(b1-4)GlcNAc(b1-3)Gal(b1-4)GlcNAc(b1-3)Gal(b1-4)GlcNAc
In short: as §1

[5] = target: Gal(b1-4)GlcNAc(b1-3)Gal(b1-4)GlcNAc(b1-3)Gal(b1-4)GlcNAc(b1-2)Man(a1-3)[Gal(b1-4)GlcNAc(b1-3)Gal(b1-4)GlcNAc(b1-3)Gal(b1-4)GlcNAc(b1-2)Man(a1-6)]Man(b1-4)GlcNAc(b1-4)GlcNAc
In short: as §1

[6] = target: Gal(b1-4)GlcNAc(b1-3)Gal(b1-4)GlcNAc(b1-3)Gal(b1-4)GlcNAc(b1-2)Man(a1-3)[Gal(b1-4)GlcNAc(b1-3)Gal(b1-4)GlcNAc(b1-3)Gal(b1-4)GlcNAc(b1-2)Man(a1-6)]Man(b1-4)GlcNAc(b1-4)[Fuc(a1-6)]GlcNAc
In short: as §1

[7] = target: Gal(b1-4)GlcNAc(b1-3)Gal(b1-4)GlcNAc(b1-3)Gal(b1-4)GlcNAc(b1-2)[Gal(b1-4)GlcNAc(b1-3)Gal(b1-4)GlcNAc(b1-3)Gal(b1-4)GlcNAc(b1-6)]Man(a1-6)[Gal(b1-4)GlcNAc(b1-3)Gal(b1-4)GlcNAc(b1-3)Gal(b1-4)GlcNAc(b1-2)Man(a1-3)]Man(b1-4)GlcNAc(b1-4)[Fuc(a1-6)]GlcNAc
In short: as §1

[8] = target: Gal(b1-4)GlcNAc(b1-3)Gal(b1-4)GlcNAc(b1-3)Gal(b1-4)GlcNAc(b1-3)Gal(b1-4)GlcNAc(b1-2)Man(a1-3)[Gal(b1-4)GlcNAc(b1-3)Gal(b1-4)GlcNAc(b1-3)Gal(b1-4)GlcNAc(b1-3)Gal(b1-4)GlcNAc(b1-2)Man(a1-6)]Man(b1-4)GlcNAc(b1-4)GlcNAc
In short: as §1

[9] = target: Gal(b1-4)GlcNAc(b1-3)Gal(b1-4)GlcNAc(b1-3)Gal(b1-4)GlcNAc(b1-3)Gal(b1-4)GlcNAc(b1-2)Man(a1-3)[Gal(b1-4)GlcNAc(b1-3)Gal(b1-4)GlcNAc(b1-3)Gal(b1-4)GlcNAc(b1-3)Gal(b1-4)GlcNAc(b1-2)Man(a1-6)]Man(b1-4)GlcNAc(b1-4)[Fuc(a1-6)]GlcNAc
In short: as §1

[10] = target: Gal(b1-4)GlcNAc(b1-3)Gal(b1-4)GlcNAc(b1-3)Gal(b1-4)GlcNAc(b1-3)Gal(b1-4)GlcNAc(b1-2)[Gal(b1-4)GlcNAc(b1-3)Gal(b1-4)GlcNAc(b1-3)Gal(b1-4)GlcNAc(b1-3)Gal(b1-4)GlcNAc(b1-6)]Man(a1-6)[Gal(b1-4)GlcNAc(b1-3)Gal(b1-4)GlcNAc(b1-3)Gal(b1-4)GlcNAc(b1-3)Gal(b1-4)GlcNAc(b1-2)Man(a1-3)]Man(b1-4)GlcNAc(b1-4)[Fuc(a1-6)]GlcNAc
In short: as §1

[11] = target: Gal(b1-4)GlcNAc(b1-3)Gal(b1-4)GlcNAc(b1-3)Gal(b1-4)GlcNAc(b1-3)Gal(b1-4)GlcNAc(b1-3)Gal(b1-4)GlcNAc(b1-2)Man(a1-3)[Gal(b1-4)GlcNAc(b1-3)Gal(b1-4)GlcNAc(b1-3)Gal(b1-4)GlcNAc(b1-3)Gal(b1-4)GlcNAc(b1-3)Gal(b1-4)GlcNAc(b1-2)Man(a1-6)]Man(b1-4)GlcNAc(b1-4)GlcNAc
In short: as §1

[12] = target: Gal(b1-4)GlcNAc(b1-3)Gal(b1-4)GlcNAc(b1-3)Gal(b1-4)GlcNAc(b1-3)Gal(b1-4)GlcNAc(b1-3)Gal(b1-4)GlcNAc(b1-2)Man(a1-3)[Gal(b1-4)GlcNAc(b1-3)Gal(b1-4)GlcNAc(b1-3)Gal(b1-4)GlcNAc(b1-3)Gal(b1-4)GlcNAc(b1-3)Gal(b1-4)GlcNAc(b1-2)Man(a1-6)]Man(b1-4)GlcNAc(b1-4)[Fuc(a1-6)]GlcNAc
In short: as §1

[13] = target: Gal(b1-4)GlcNAc(b1-3)Gal(b1-4)GlcNAc(b1-3)Gal(b1-4)GlcNAc(b1-3)Gal(b1-4)GlcNAc(b1-3)Gal(b1-4)GlcNAc(b1-2)[Gal(b1-4)GlcNAc(b1-3)Gal(b1-4)GlcNAc(b1-3)Gal(b1-4)GlcNAc(b1-3)Gal(b1-4)GlcNAc(b1-3)Gal(b1-4)GlcNAc(b1-6)]Man(a1-6)[Gal(b1-4)GlcNAc(b1-3)Gal(b1-4)GlcNAc(b1-3)Gal(b1-4)GlcNAc(b1-3)Gal(b1-4)GlcNAc(b1-3)Gal(b1-4)GlcNAc(b1-2)Man(a1-3)]Man(b1-4)GlcNAc(b1-4)[Fuc(a1-6)]GlcNAc
In short: as §1

[14] = target: Gal(b1-4)GlcNAc(b1-3)Gal(b1-4)GlcNAc(b1-3)Gal(b1-4)GlcNAc(b1-3)Gal(b1-4)GlcNAc(b1-3)Gal(b1-4)GlcNAc(b1-3)Gal(b1-4)GlcNAc(b1-2)Man(a1-3)[Gal(b1-4)GlcNAc(b1-3)Gal(b1-4)GlcNAc(b1-3)Gal(b1-4)GlcNAc(b1-3)Gal(b1-4)GlcNAc(b1-3)Gal(b1-4)GlcNAc(b1-3)Gal(b1-4)GlcNAc(b1-2)Man(a1-6)]Man(b1-4)GlcNAc(b1-4)GlcNAc
In short: as §1

[15] = target: Gal(b1-4)GlcNAc(b1-3)Gal(b1-4)GlcNAc(b1-3)GalNAc
In short: as §1

[16] = target: Gal(b1-4)GlcNAc(b1-3)Gal(b1-4)GlcNAc(b1-3)[Gal(b1-4)GlcNAc(b1-3)Gal(b1-4)GlcNAc(b1-6)]GalNAc
In short: as §1

[17] = target: Gal(b1-4)GlcNAc(b1-3)Gal(b1-4)GlcNAc(b1-6)[Gal(b1-3)]GalNAc
In short: as §1

[18] = target: Gal(b1-4)GlcNAc(b1-3)Gal(b1-4)[Fuc(a1-3)]GlcNAc(b1-3)Gal(b1-4)[Fuc(a1-3)]GlcNAc
In short: as §1

[19] = target: Gal(b1-4)GlcNAc(b1-3)GalNAc
In short: as §1

[20] = target: Gal(b1-4)GlcNAc(b1-3)[Fuc(a1-3)GlcNAc(b1-6)]Gal(b1-4)Glc
In short: as §1

[21] = target: Gal(b1-4)GlcNAc(b1-3)[Gal(b1-4)GlcNAc(b1-6)]Gal(b1-4)GlcNAc
In short: as §1

[22] = target: Gal(b1-4)GlcNAc(b1-3)[GlcNAc(b1-6)]Gal(b1-4)GlcNAc
In short: as §1

[23] = target: Gal(b1-4)GlcNAc(b1-6)Gal(b1-4)GlcNAc
In short: as §1

[24] = target: Gal(b1-4)GlcNAc(b1-6)GalNAc
In short: as §1

[25] = target: Gal(b1-4)GlcNAc(b1-6)[Gal(b1-3)]GalNAc
In short: as §1

[26] = target: Gal(b1-4)GlcNAc(b1-6)[Gal(b1-4)GlcNAc(b1-3)]GalNAc
In short: as §1

Gal(b1-4)GlcNAc6P = target: Gal(b1-4)GlcNAc6P
In short: as §1

Gal(b1-6)Gal = target: Gal(b1-6)Gal
In short: as §1

Gal3S(b1-3)GalNAc = target: Gal3S(b1-3)GalNAc
In short: as §1

Gal3S(b1-3)GlcNAc = target: Gal3S(b1-3)GlcNAc
In short: as §1

[27] = target: Gal3S(b1-3)[Fuc(a1-4)]GlcNAc
In short: as §1

Gal3S(b1-4)Glc = target: Gal3S(b1-4)Glc
In short: as §1

Gal3S(b1-4)Glc6S = target: Gal3S(b1-4)Glc6S
In short: as §1

Gal3S(b1-4)GlcNAc = target: Gal3S(b1-4)GlcNAc
In short: as §1

[28] = target: Gal3S(b1-4)[Fuc(a1-3)]Glc6S
In short: as §1

[29] = target: Gal3S(b1-4)[Fuc(a1-3)]GlcNAc
In short: as §1

[30] = target: Gal3S(b1-4)[Fuc(a1-3)]GlcNAc6S
In short: as §1

Gal3S4S(b1-4)GlcNAc = target: Gal3S4S(b1-4)GlcNAc
In short: as §1

Gal3S6S(b1-4)GlcNAc = target: Gal3S6S(b1-4)GlcNAc
In short: as §1

Gal3S6S(b1-4)GlcNAc6S = target: Gal3S6S(b1-4)GlcNAc6S
In short: as §1

Gal4S(b1-4)GlcNAc = target: Gal4S(b1-4)GlcNAc
In short: as §1

Gal4S6S(b1-4)GlcNAc = target: Gal4S6S(b1-4)GlcNAc
In short: as §1

Gal6P(b1-4)GlcNAc = target: Gal6P(b1-4)GlcNAc
In short: as §1

Gal6S(b1-3)GlcNAc = target: Gal6S(b1-3)GlcNAc
In short: as §1

Gal6S(b1-3)GlcNAc6S = target: Gal6S(b1-3)GlcNAc6S
In short: as §1

B1: VLRB.aGPA.23-GCN4-biotin (Petromyzon marinus) (protein)
chain: ACPSQCSCSGTEVNCAGKSLASVPAGIPTTTRVLYLNSNQITKLEPGVFDRLANLRELHLWGNQLVSLPPGVFDNLANLEKLWLNSNQLTSLPAGLFDRLVNLEHLGLCCMKLTELPSGAFDKLTRLKQLGLDQNQLKSIPDGAFARLPSLTHVWLHTNPWDCQCTDILYLSGWVAQHSSIVGEGWPWRHSPDSAKCSGTNTPVRAVTEASTSPSKCP
- glycan array binding signal (z-score) [1]: -0.071
- glycan array binding signal (z-score) [2]: -0.08
- glycan array binding signal (z-score) [3]: -0.065
- glycan array binding signal (z-score) [4]: -0.083
- glycan array binding signal (z-score) [5]: -0.036
- glycan array binding signal (z-score) [6]: -0.074
- glycan array binding signal (z-score) [7]: -0.07
- glycan array binding signal (z-score) [8]: -0.072
- glycan array binding signal (z-score) [9]: -0.081
- glycan array binding signal (z-score) [10]: -0.071
- glycan array binding signal (z-score) [11]: -0.081
- glycan array binding signal (z-score) [12]: -0.079
- glycan array binding signal (z-score) [13]: -0.076
- glycan array binding signal (z-score) [14]: -0.071
- glycan array binding signal (z-score) [15]: -0.04
- glycan array binding signal (z-score) [16]: -0.042
- glycan array binding signal (z-score) [17]: -0.044
- glycan array binding signal (z-score) [18]: -0.077
- glycan array binding signal (z-score) [19]: -0.075
- glycan array binding signal (z-score) [20]: -0.059
- glycan array binding signal (z-score) [21]: -0.079
- glycan array binding signal (z-score) [22]: -0.077
- glycan array binding signal (z-score) [23]: -0.081
- glycan array binding signal (z-score) [24]: -0.067
- glycan array binding signal (z-score) [25]: -0.079
- glycan array binding signal (z-score) [26]: -0.074
- glycan array binding signal (z-score) (Gal(b1-4)GlcNAc6P): -0.081
- glycan array binding signal (z-score) (Gal(b1-6)Gal): -0.073
- glycan array binding signal (z-score) (Gal3S(b1-3)GalNAc): -0.075
- glycan array binding signal (z-score) (Gal3S(b1-3)GlcNAc): -0.063
- glycan array binding signal (z-score) [27]: -0.082
- glycan array binding signal (z-score) (Gal3S(b1-4)Glc): -0.073
- glycan array binding signal (z-score) (Gal3S(b1-4)Glc6S): -0.079
- glycan array binding signal (z-score) (Gal3S(b1-4)GlcNAc): -0.076
- glycan array binding signal (z-score) [28]: -0.066
- glycan array binding signal (z-score) [29]: -0.073
- glycan array binding signal (z-score) [30]: -0.074
- glycan array binding signal (z-score) (Gal3S4S(b1-4)GlcNAc): -0.079
- glycan array binding signal (z-score) (Gal3S6S(b1-4)GlcNAc): -0.078
- glycan array binding signal (z-score) (Gal3S6S(b1-4)GlcNAc6S): -0.07
- glycan array binding signal (z-score) (Gal4S(b1-4)GlcNAc): -0.08
- glycan array binding signal (z-score) (Gal4S6S(b1-4)GlcNAc): -0.079
- glycan array binding signal (z-score) (Gal6P(b1-4)GlcNAc): -0.084
- glycan array binding signal (z-score) (Gal6S(b1-3)GlcNAc): 0.341
- glycan array binding signal (z-score) (Gal6S(b1-3)GlcNAc6S): -0.086
